Data on one molecule can be found in patent US20220127332A1.

This assay has as its target active TGFβ3 (UniProt P10600). In words: blocking of active TGFβ3 (1 ng/mL) in solution, 30 min in PBS; free TGFβ3 by ELISA. Background: An ELISA detects its analyte on a solid surface through an enzyme-linked reagent.
UniProt P10600, sequence (P10600 301-412): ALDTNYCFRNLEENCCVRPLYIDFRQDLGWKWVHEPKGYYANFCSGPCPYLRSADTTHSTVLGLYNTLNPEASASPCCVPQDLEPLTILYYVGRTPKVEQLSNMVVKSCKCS

B1: bFISTv3 (bivalent FIST; fusion of an IL-2 polypeptide, a first sTBRII receptor polypeptide and a second sTBRII receptor polypeptide) (protein)
chain: [omitted - about 150 residues]KSDVEMEAQKGEMICVTCNRTAHPLKHVNNDMIVTDNNGAVKLPQLCKFCDVRFSTCDNQKSCMSNCSITSICEKPQEVCVAVWRKNDENITLETVCHDPKLTYHGFTLEDAASPKCVMKEKKKPGETFFMCSCSSDECNDNIIFIPPHVQKSVNNDMIVTDNNGAVKLPQLCKFCDVRFSTCDNQKSCMSNCSITSICEKPHEVCVAVWRKNDENITLETVCHDPKLTYHGFTLEDAASPKCVMKEKKKPGETFFMCSCSADECNDNIIFSEDYNTSNPD
In turn, B1 gave an IC50 of 0.07 nM.

In general, IC50 refers to the midpoint of a concentration-inhibition curve. A higher IC50 goes with weaker potency in that assay.
